This is an account of results in the supplement of paper PMC12632987.

First the molecules themselves.
T1: TRAF2, Q12933
T1 chain: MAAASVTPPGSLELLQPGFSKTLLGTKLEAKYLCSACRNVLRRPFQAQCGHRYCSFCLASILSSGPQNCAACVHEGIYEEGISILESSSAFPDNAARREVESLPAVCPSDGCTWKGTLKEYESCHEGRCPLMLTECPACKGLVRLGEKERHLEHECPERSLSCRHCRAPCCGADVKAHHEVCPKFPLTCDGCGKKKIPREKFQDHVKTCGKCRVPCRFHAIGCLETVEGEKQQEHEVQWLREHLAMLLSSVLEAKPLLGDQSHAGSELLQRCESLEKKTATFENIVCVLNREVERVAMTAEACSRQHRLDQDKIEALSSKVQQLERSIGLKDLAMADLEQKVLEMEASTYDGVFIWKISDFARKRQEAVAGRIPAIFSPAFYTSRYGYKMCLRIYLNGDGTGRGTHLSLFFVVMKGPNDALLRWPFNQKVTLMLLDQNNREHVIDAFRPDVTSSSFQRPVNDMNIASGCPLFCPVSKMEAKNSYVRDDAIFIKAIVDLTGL

B1: traf2_out_8_15_2560 (protein)
chain: SIEEAAEKDAEKLKKASDGDTESLIQALLGMAKAELRYAEILLEEGKKELALRTIKHARAFLKLALEEAKKSGHPNLEEIEKEAKEIEERLKEIEEKIKK
B2: traf2_out_14_166_1276 (protein)
chain: MTPEEIERIRKIVDELEPLTDKAVAEARAILAKNRGKLSPEQLAQVEALLALAARNIGSSAINALEQMAEIFKKAGLADAAAALKALADELREKLKELNK
B3: traf2_out_20_3_2215 (protein)
chain: EELRKAVEEELERVEELLEEAKPGLPEEDYEELEELLRKAREALEKDPADALVELSRLKAALLRLAQAAKAAGDEELAALLEEAAEEVNRAANLVYKLLE
B4: traf2_out_14_166_1282 (protein)
chain: MTPEEIARIRAIVDALEPLTDAAVAEAEAILEKNRSKLSPEQLARLEELLAIARRNVGSSAINALREMAEIFEKAGLAEAAAAFRALADELEARLSELNA
B5: traf2_out_18_167_1868 (protein)
chain: SEELLKKREEASDELVRLSEIRRAFLLALEALEESREKARAILEAALERLPDSEELRAALEAFDTLSDEEIRAFLESTAEELQKRMNEVYKKLEELEKEL
B6: traf2_out_13_95_1076 (protein)
chain: SAEANEKIMEIADRMLEEGEKILKELLEKVADDPEMKAAVQEALHLLEHHGINAAIHLLEKLAKENEEYKELLLEAIEKLRELKREAGREVARILKEEKE
B7: traf2_out_13_95_1047 (protein)
chain: SEETAKKIMEVADKAEEEALRLLEEALEEVADDPEAAAVLEEALRLARTRGIHEAIHLLEEARAADPEHAELFAELIEKLEEIRREAGREVAKIIKEEKE
B8: traf2_out_17_162_1500 (protein)
chain: AEAEARFARLREELERLKEELKKLEKKLPDLENMSKEELSDLLVEVSELKRRARRLAEELRRLAEETGSPEARELLEEAERLAEEAQKIANKIYKVYEKK
B9: traf2_out_20_38_2009 (protein)
chain: SEEEEEEEREEKLIEVANEAYDEAEAKVAAMKAAGKTVAEIAEAVKKEVTELLTAAGLEEEAKILVEDIDIAAKSPDAERLLVRILARAKTLVYQKELQK
B10: traf2_out_11_104_653 (protein)
chain: LTREQAREFNDFAMEARDRAHEIGAEVAKELEARGHTEEAARVRAALADPGTGISTLRNLLEELLPKLDEESRKVAEEAIERLEELQQEVSDKLNELEAK
B11: traf2_out_15_48_1358 (protein)
chain: STEALRETARKVADLIDATLDEVAKELKALLPKAKPEVKPILEEAIRVASTHRSINDTIALLEEAIKKSDPELAKELQELRDRLLATQKEASKLINETEK
B12: traf2_out_20_3_2159 (protein)
chain: SELEKKAEEALEKAVKLLDEAAELADPETAARLKELRERVIASKELSPEDRLVVLSEVRREVRALAEEARAAGREELAAVLEEAADALNKAMQLVYKIIE
B13: traf2_out_14_149_1231 (protein)
chain: SEEAKLLAAAAELTEKIAKTLEEVLKLLKEGKLEEAKKLLKESIEELEKESKKKGVTPSQLFQLEDLLELLEKDPEAAKKFAEEALARAKENADTLKEMA
B14: traf2_out_18_147_1815 (protein)
chain: DLNEALNELADAKDEYVQTVRDAFTALGAEAEAEKYSALARGTGSDPELLTALRDEVVAKVKALDPSKAPEVKAKLDELTAKILEYRKKINELLKKEEEE
B15: traf2_out_13_95_1211 (protein)
chain: EKEKTEKLREKMNEIADELIDFIEEKAEEIKEETGDEEYKEEILSTLRRYGVRAAVALIREYAEKDPEYAEVYRKAAEEAEKKIREAGRKAAEAIKEIEE
B16: traf2_out_5_63_2342 (protein)
chain: SEREELTELAREADRLVREMLEAAERGDEEEVERLLEEAVEDPELARLVIGILKAEARAYELSGREKELAEIAKELRERLERLLEERERREREEREAAER
B17: traf2_out_17_162_1612 (protein)
chain: SSLEATLKELLKKKEELEKKLKELEEKLKNISKLSKEELSDLLVEASEARREALEALEKLRSLKDKLDPELYKELSEKFEEIAEKFQKLANKFYKELEKK
B18: traf2_out_13_95_1200 (protein)
chain: EEEKTKKIREVTNKIADELLDFADKTAEEVEKETGREDHKERILKALNGNGINAAIQVLRELAKEDPEYAEIYLKAAEELEAKREEAGKEVAKELKKIEE
B19: traf2_out_16_62_1468 (protein)
chain: EEEKKKLLKEADEYIDANQELRDTVITFRSGGDKEAALKKLAELAEKYGELMKELLDALKQALADPENQAEYLAKADELATEVRTKLVKKALELEEKAKK
B20: traf2_out_20_3_2097 (protein)
chain: EELEKELEKALEEALKLIKEAIKIADKETAKKLEKLAKELKKARELPLEDRLVKLSEVRRKLLELAEEAKKKGKEELAKILEEAAEEINRAMNLAYKIIE
B21: traf2_out_20_3_2227 (protein)
chain: EELEKEAEKKLEEAEKQLKEIIKVADEEDKKVVEKMLKELKEAKKLDPVDRLVVVSKVRRTLLELAQRARARGNEELAKKLEEAAELLQKLMQLLYKIIE
B22: traf2_out_5_189_2330 (protein)
chain: SPKELEEERDRERARRLTKEANALLAEAQEKGLSPEEFIDRALARLAELSLEDARLFRGIMYAIALNTAWANNDEELEAAAREFRERAAALIAAREAAAA
B23: traf2_out_6_166_2467 (protein)
chain: EEEKLKRIREIIEELGKYPAEIVIEAFEILAEKRDDRRATLARQLASGVRQGQKAGLDVKTILSAFADGMLALGVPVEEILELFEEVLKIAEELEKKRKE
B24: traf2_out_17_178_1728 (protein)
chain: SKEEILKKISEVADKRLDVNKKAMDELRAIAEAEGVLTPELAARLDAVSKTSNLYALQEVAEEVIARSSSAAEVQALLDKTTKELKKLNKEIQELVEKLE
B25: traf2_out_13_95_1180 (protein)
chain: SAETKEKINEIADEMIEEVEKILAEAAEKVADDPEVKAALEEIRETARTKGVSTAIHQLEELAAANPEHKELLTEALEKIKEVRREAGKKVAEIIKEEKE
B26: traf2_out_11_155_688 (protein)
chain: EKERELNNELVDKVTEIEERLKEKVLEILREAAAAHPEHREEVEALVEEHRGWSGSSLARAAAQLFRELGLEEEAKRVEELLEKAQEEKNKVLKEIEAKL
B27: traf2_out_17_178_1735 (protein)
chain: SKEEILKEISKLADELLDTTKTAMDKIKAILKEEGVLTPELEARLDAVAKNGNLYAFEEVADEAIALSSRKEELTALKNETTAKMKELNKKIQEAVQKLE
B28: traf2_out_20_3_2087 (protein)
chain: SELEKELEEELKKAEELLKKAQAAADPKTAEKLKKLIERLKESRELDPTDRLVEISEIRRELLLLQQEAKAAGKAELAALLEKAIEELGRAMNLLMKIIE
B29: traf2_out_17_162_1479 (protein)
chain: MSIEEKVERLERELEELEEEARRLREELERLEEKSKEEITDLLVEVSEARRRALELAEEFEELAPEIGEEKARELADRAREIAEELQRIANEIYKELEKK

Over roughly 1,800 sequences, “median log2 fold change of GCK-ALFA target abundance (FLAG IP / Myc IP barcode read proportion)” has its median near 0.14; the lowest 2% begin near -0.84. The list shows a part of the results.

The assay addresses T1, TRAF2, Q12933. Put plainly: median log2 fold change of GCK-ALFA target abundance (FLAG IP / Myc IP barcode read proportion) (log2 ratio); each designed protein is fused to an ALFA-tag nanobody in HEK293 cells to bring the named protein to FLAG-tagged glucokinase (GCK); Myc marks an untargeted standard; higher = target protein stabilised (more abundant). The note with it: target protein: 3xFLAG-MCP-GCK-ALFA reporter; HEK293 landing pad (RPLP). In outline: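 HEK293 landing-pad cells received a recombined binder library fused to the ALFA nanobody and were induced with 2 μg mL^−1 doxycycline, then transfected with a plasmid encoding a FLAG-tagged target and a Myc-tagged standard. Lysates were collected after 48 h for anti-FLAG and anti-Myc immunoprecipitation, and the circular RNA barcodes were reverse transcribed, amplified and sequenced. Target abundance for each binder is the median log2 ratio of FLAG to Myc barcode read proportions. Barcodes had to reach a proportion of at least 10^−7 in both replicates, each binder needed at least 3 barcodes per replicate, a pseudocount of 10^−6 was applied, and the two replicates were pooled.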
B1: the “median log2 fold change” value was determined as 0.0892.
In the case of B2 it was 0.325.
The figure for B3 is 0.264.
The figure for B4 is 0.336; for B5 it is 0.166.
With B6, the “median log2 fold change” value is -0.0844.
In the case of B7 it was 0.0877; in that of B8, 0.232; in that of B9, 0.142.
As for B10, the “median log2 fold change” value worked out at 0.419.
For the molecule B11, the “median log2 fold change” value turned out to be 0.33.
As for B12, the “median log2 fold change” value came to 0.32.
The figure for B13 is 0.24; for B14 it is 0.234.
In the case of B15 it was -0.746; in that of B16, 0.114.
The figure for B17 is 0.155; for B18 it is 0.311; for B19 it is 0.58.
On to B20, for which the “median log2 fold change” value worked out at 0.141.
Consider B21, for which the “median log2 fold change” value came out at 0.226.
The figure for B22 is 0.0828; for B23 it is -0.123; for B24 it is 0.22.
B25: the “median log2 fold change” value is -0.534.
Take B26: the “median log2 fold change” value was 0.217.
In the case of B27, the “median log2 fold change” value was found to be 0.157.
The figure for B28 is 0.116; for B29 it is 0.0731.
